In the supplement of paper PMC11417369:
The other results are listed elsewhere or left out.

These sequences were tested on PfSIP2 AP2 domain 1 (GST-tagged) (assay: gcPBM binding intensity (ln(normalized median fluorescence intensity)); higher = stronger DNA binding).
In short: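 For binding intensity, the highest Masliner-normalised natural-log median intensity across replicate spots of either probe orientation was taken. Protein bound to the array was stained with Alexa488 anti-GST antibody and scanned at 488 nm. The protein, GST-tagged P. falciparum DNA-binding domains from E. coli at about 25 μg on average, had been applied for 1 h to an Agilent 4 × 180k array of primer-extended double-stranded 36-bp intergenic genomic probes and negative controls.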

Row | Sequence | gcPBM binding intensity (ln)
1 | TATAATCATAAATACACACACATATATATATATATA [CACACA_site5224] | 9.47
2 | TTCTCATCCTTACATACACACACATATATATATATA [CACACA_site7914] | 9.69
3 | GTTCAATTATTTTTATGTACATATATTTTTTTCTTT [XGTACX_site2505] | 7.46
4 | GTTATTAAAAACGGGTGTACACATATATAAATATAT [XGTACX_site1234] | 7.59
5 | TATTTATTATAAAAATTGTATAAAATAATAATGCTC [GTGCAC_negctrl_site456] | 7.02
6 | ATTTCACAGAAACACACACACAATATATTTCCTTTT [CACACA_site3904] | 6.84
7 | GAAAAATGAAGAGAACAAAATTTTATGATATATATA [GTGCAC_negctrl_site231] | 7.2
8 | TTTCATAAATAAATATGTACATAATTAATAATAAAT [XGTACX_site5882] | 7.03
9 | CCTTGAACCCCACTAACACACACACCCACGCTCAGA [CACACA_site8976] | 7.23
10 | TATACATAGATATATACACACATATATTTATATACA [CACACA_site6328] | 6.93
11 | ATTACAAAAAAAAAAAAAAAAAAAAAAAAAAAAAAA [CACACA_negctrl_site448] | 7.04
12 | ATATGTATATATATTTGTACGTAAAATGAAATCTAA [XGTACX_site213] | 7.45
13 | AAATAGTATATAATATGTACATACATAAAAATGTAT [XGTACX_site3524] | 6.95
14 | ACCTATGTATATTATACACACTCCAAACTATTATTT [CACACA_site1817] | 7.19
15 | AAAGGTAAGCAGAATAGTACAGAAGAAAAAATATTT [XGTACX_site2941] | 6.89
16 | TTTTGTTTGTTCGTGACTACATTATGTTGTAAATAC [CACACA_negctrl_site604] | 7.01
17 | CAACATTTGAGACACACACACATACAAACAAACAAA [CACACA_site7538] | 7.21
18 | TATCCTATAAATAATACATGCATATATATATATATT [TGCATGCA_site638] | 7.21
19 | ATCAAAAAAAAAAAATTTTTTTTTTTGTTTGTTTCC [CACACA_negctrl_site1042] | 6.9
20 | AAGAAAATTAAATTAACACACATAAATATGTAAATA [CACACA_site6882] | 6.61
21 | CCAATAATATATAGAAGTACAGAAAAAAAAAAAAAA [XGTACX_site2049] | 6.9
22 | CCCTCTTCTCTCATATCACACATGTCATCCTTATCC [CACACA_site5078] | 7.75

Row | Sequence | gcPBM binding intensity (ln)
23 | TATAAATATTTATAAACACACAAATATATATATTTA [CACACA_site27] | 7.02
24 | ATCAAAATGTTAAAGATACACACCTAACAAACACAA [CACACA_site955] | 7.31
25 | GCACGCTGTATGAATGCACACATTCATAGAATTGCT [CACACA_site8852] | 6.88
26 | TTATATATATAGAAGTGTACAAAATTTCCTAGACCT [XGTACX_site3900] | 7.06
27 | TATCGACATTTCATTTGTACATATATACATATATTT [XGTACX_site3346] | 7
28 | TTTTTCTCTTTAAGGTGTACAATAATACAGTAACCA [XGTACX_site300] | 7.44
29 | TTGTACGCAAAAAAAAAAAAAAAAAAATTAAAATTT [TGCATGCA_negctrl_site586] | 7.28
30 | ATATTAGTAACACAGACACACAAAAAAAAAAAAAAA [CACACA_site2176] | 6.99
31 | AGGAAAATACCTTAATGTACATAGAAAAGTAACATT [XGTACX_site8011] | 6.9
32 | TTTTTTATTATCAAAACATGCATTTTTTAAATGGAA [TGCATGCA_site557] | 6.81
33 | CACTTAACACAAGAGTGTACACATATATATATATAT [XGTACX_site686] | 9.53
34 | TTAAGAAGTTCTAAATGTACATACATAACCACGTTA [XGTACX_site7514] | 7.13
35 | GGGAAATATTGAAACACACACGAACGCACGTATTTC [CACACA_site6258] | 6.85
36 | ATAATATTTTCTTCTTATTGAATGCTTTAAATTTAC [CACACA_negctrl_site1273] | 6.98
37 | ACAAATAAGTTTTGTAGTACTGTGTATATATATATA [XGTACX_site6901] | 9.06
38 | TTAAACCGTGGGAGCACACACACACCCCCACCCATA [CACACA_site331] | 7.51
39 | TAATGAAATATACAGAGTACATTCTGTATATAGGAT [XGTACX_site7691] | 6.89
40 | GCATAAGAAAATAATTGTACAATTTACATACATAAA [XGTACX_site8286] | 7.05
41 | TATATATGTATATATATAAATATATATATATATATA [TGCATGCA_negctrl_site605] | 9.29
42 | TATAAATATATATACACACACACATTAATACATATA [CACACA_site3488] | 7.21
43 | AATATATACAATATATGTACATATATATACACATAT [XGTACX_site4190] | 7.18
44 | CTTTTATTAAAATTCACACACATAAACTTTTATAAA [CACACA_site7027] | 6.96
